Measured values from PMC4336329 (PLoS ONE, 2015).
Screen size: about 310,000 compounds; about 2,200 (0.71%) showed an effect of 50% or more. Effects have a minus sign here. The list shows a part of the results.

Each compound was assayed against human ether-à-go-go-related gene (hERG) potassium channel (human, UniProt Q12809) (assay: primary screen, population patch clamp on CHO cells stably expressing hERG).
human ether-à-go-go-related gene (hERG) potassium channel, sequence (Q12809 whole entry, looked up): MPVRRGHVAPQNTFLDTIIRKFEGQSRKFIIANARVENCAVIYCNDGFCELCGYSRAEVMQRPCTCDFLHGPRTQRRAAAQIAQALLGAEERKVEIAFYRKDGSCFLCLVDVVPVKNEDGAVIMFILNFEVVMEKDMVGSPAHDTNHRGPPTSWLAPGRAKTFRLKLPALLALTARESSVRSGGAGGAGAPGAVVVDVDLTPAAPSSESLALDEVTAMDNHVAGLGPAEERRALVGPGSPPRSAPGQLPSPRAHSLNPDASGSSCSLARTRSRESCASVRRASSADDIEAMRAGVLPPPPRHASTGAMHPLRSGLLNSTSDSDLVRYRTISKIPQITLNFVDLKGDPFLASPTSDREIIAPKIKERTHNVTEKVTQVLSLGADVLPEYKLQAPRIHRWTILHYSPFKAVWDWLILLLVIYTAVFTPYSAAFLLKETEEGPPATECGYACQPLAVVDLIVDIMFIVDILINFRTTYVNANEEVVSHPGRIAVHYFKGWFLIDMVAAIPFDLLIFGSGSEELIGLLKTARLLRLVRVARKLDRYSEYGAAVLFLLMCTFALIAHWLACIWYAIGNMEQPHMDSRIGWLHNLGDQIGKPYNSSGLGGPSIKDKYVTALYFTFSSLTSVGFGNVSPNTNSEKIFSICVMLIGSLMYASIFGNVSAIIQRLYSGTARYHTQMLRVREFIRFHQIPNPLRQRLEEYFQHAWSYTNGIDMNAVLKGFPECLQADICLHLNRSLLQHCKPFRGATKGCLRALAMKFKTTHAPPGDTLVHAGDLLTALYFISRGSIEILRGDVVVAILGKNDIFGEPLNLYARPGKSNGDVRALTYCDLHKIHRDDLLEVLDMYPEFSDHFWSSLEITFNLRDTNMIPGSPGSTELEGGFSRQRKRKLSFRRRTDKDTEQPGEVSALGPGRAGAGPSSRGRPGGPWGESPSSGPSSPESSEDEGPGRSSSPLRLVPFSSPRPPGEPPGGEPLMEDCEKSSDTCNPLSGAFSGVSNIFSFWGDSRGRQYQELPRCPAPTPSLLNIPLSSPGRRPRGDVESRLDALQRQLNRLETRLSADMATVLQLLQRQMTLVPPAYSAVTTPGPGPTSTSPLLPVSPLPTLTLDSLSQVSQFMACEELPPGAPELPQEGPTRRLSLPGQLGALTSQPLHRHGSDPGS
Protocol: Briefly, Chinese hamster ovary (CHO) cells stably expressing the hERG channel were dislodged from tissue culture flasks and dispensed into PPC plates. […] During the recording, background leak currents were estimated by a 100 ms step to -80 mV from an initial holding potential of -70 mV and subtracted from the subsequent current measurement. The campaign was conducted in two phases using slight differences in recording protocol. In the first phase, the initial voltage pulse used a 100 ms step to -30 mV from a holding potential of -70 mV, a 2 s conditioning step to +25 mV, and a 2 s test step to -30 mV. During the second phase of the screen, the potential during the conditioning step was raised to +45 mV. In both phases of the campaign, a secondary voltage pulse was applied using the same parameters as the second phase initial pulse. The initial and secondary pulses were applied in the absence of compound, and upon application of 1 μM and 10 μM test concentrations. Small molecule effects on hERG current density were quantified by […].
With `Cn1c(=O)[nH]c(=O)c2c1nc(Br)n2C/C=N/Nc1ccccc1` the “hERG current change (%, negative = inhibition) at 1uM” value was -1.05%. `CCCCCC(=O)Nc1ccc(Cc2ccncc2)cc1` was tested, and the “hERG current change (%, negative = inhibition) at 1uM” value was 6.58%. For `CCOc1ccccc1/C=N/NC(=O)CNC(=O)COc1ccccc1`, the “hERG current change (%, negative = inhibition) at 1uM” value was 6.6%. For `COC1=C(C)C(O)=C(C(=O)/C=C/c2ccccc2)C(=O)C1(C)C`, the “hERG current change (%, negative = inhibition) at 1uM” value was -0.663%. `COc1ccc(CCNC(=O)Cn2nnc(-c3cccc(OC)c3OC)n2)cc1OC` was tested, and the “hERG current change (%, negative = inhibition) at 1uM” value was 8.26%. `CC(=O)O/N=C/c1c(C)c(C=O)n2ccccc12` was tested, and the “hERG current change (%, negative = inhibition) at 1uM” value was 9.71%. With `C=CCOc1c(CNc2ccc3[nH]c(=O)[nH]c3c2)cccc1OC` the “hERG current change (%, negative = inhibition) at 1uM” value was 11.7%. In the case of `N/C(=N\OC(=O)CCc1ccccc1)c1ccc(Br)cc1`, the “hERG current change (%, negative = inhibition) at 1uM” value is reported as 16%. With `COc1cc(Br)cc2cc(C(=O)N3CCN(c4ccccn4)CC3)c(=O)oc12` the “hERG current change (%, negative = inhibition) at 1uM” value was -14.2%. In the case of `O=[N+]([O-])c1ccc(CCn2ccnc2)cc1`, the “hERG current change (%, negative = inhibition) at 1uM” value is reported as 8.67%. For `CN(CC(=O)N1CCN(c2ccc(F)cc2)CC1)S(=O)(=O)c1ccc2c(c1)c(=O)n(C)c(=O)n2C`, the “hERG current change (%, negative = inhibition) at 1uM” value was 8.98%. In the case of `COc1cccc(OCCNC(=O)c2cc([N+](=O)[O-])cc([N+](=O)[O-])c2)c1`, the “hERG current change (%, negative = inhibition) at 1uM” value is reported as 9.35%. In the case of `COc1cc(/C=C/C(=O)O)ccc1OS(=O)(=O)c1ccc(C)cc1`, the “hERG current change (%, negative = inhibition) at 1uM” value is reported as 9.33%. `CN1CCN(CC(=O)Nc2ccc(Oc3ccccc3)cc2)CC1` was tested, and the “hERG current change (%, negative = inhibition) at 1uM” value was -18.4%. For `COc1ccc(/C=C(\C#N)C(=O)N2CCOCC2)cc1Br`, the “hERG current change (%, negative = inhibition) at 1uM” value was 3.88%. `COc1ccc(C(=O)NCc2nnc(SCC(=O)N3CCc4ccccc43)o2)cc1OC` was tested, and the “hERG current change (%, negative = inhibition) at 1uM” value was 14.6%. `CCN1CCN(CCOCCOc2ccccc2-c2ccccc2)CC1.O=C(O)C(=O)O` was tested, and the “hERG current change (%, negative = inhibition) at 1uM” value was 9.38%. For `COc1nc(OC)nc(N2CCC(C(=O)NCc3ccc(F)cc3)CC2)n1`, the “hERG current change (%, negative = inhibition) at 1uM” value was -27.3%. With `O=C(CNC(=O)c1ccco1)OCc1ccc(C(=O)Oc2ccccc2)cc1` the “hERG current change (%, negative = inhibition) at 1uM” value was 5.49%. For `O=C(NNC(=O)c1ccccc1F)c1ccco1`, the “hERG current change (%, negative = inhibition) at 1uM” value was 9.46%. With `O=C(NCCCN1CCN(c2ccccc2F)CC1)C1CC(=O)N(C2CCCC2)C1` (stereo not shown) the “hERG current change (%, negative = inhibition) at 1uM” value was 7.06%. `COc1ccccc1-c1nc(SCC(=O)NCC2CCCO2)c2c(=O)n(C)c(=O)n(C)c2n1` (stereo not shown) was tested, and the “hERG current change (%, negative = inhibition) at 1uM” value was 8.47%. In the case of `COc1cc(/C=N\NC(=O)CC#N)ccc1OC/C=C/c1ccccc1`, the “hERG current change (%, negative = inhibition) at 1uM” value is reported as 9.19%. `Cc1nc(N2N=C(c3ccc(Cl)cc3)CC2c2ccco2)sc1C(=O)N(C)C` (stereo not shown) was tested, and the “hERG current change (%, negative = inhibition) at 1uM” value was 8.62%. With `CC(C)CCNC(=O)C(c1cccnc1)N(Cc1ccccc1)C(=O)Cn1nnc2ccccc21` (stereo not shown) the “hERG current change (%, negative = inhibition) at 1uM” value was -5.55%. For `CC1CN(S(=O)(=O)c2cccc(C(=O)NNC(=O)C(C)Oc3ccccc3F)c2)CC(C)O1` (stereo not shown), the “hERG current change (%, negative = inhibition) at 1uM” value was -0.165%. For `CCOc1ccc(C(C)C)cc1S(=O)(=O)N1CCN(C(=O)c2ccco2)CC1`, the “hERG current change (%, negative = inhibition) at 1uM” value was 14.5%. In the case of `Cc1ccc(C(=O)OCc2c(C)noc2C)cc1NC(=O)c1ccco1`, the “hERG current change (%, negative = inhibition) at 1uM” value is reported as 4.25%. `CCOC(=O)C1=C(C)NC(=O)NC1c1ccccc1OCc1c(F)cccc1Cl` (stereo not shown) was tested, and the “hERG current change (%, negative = inhibition) at 1uM” value was 1.29%. With `O=S(=O)(c1ccc(S(=O)(=O)n2cnc3ccccc32)cc1)N1CCCCCC1` the “hERG current change (%, negative = inhibition) at 1uM” value was 13%. `CCOc1ncccc1C(=O)Nc1cc(S(=O)(=O)N2CCOCC2)ccc1N1CCCC1` was tested, and the “hERG current change (%, negative = inhibition) at 1uM” value was -10%. `CCC(=O)c1c[nH]c(C(=O)NCc2ccco2)c1` was tested, and the “hERG current change (%, negative = inhibition) at 1uM” value was 1.3%. `Cc1cc([N+](=O)[O-])ccc1NCc1ccccc1` was tested, and the “hERG current change (%, negative = inhibition) at 1uM” value was 4.76%. In the case of `CCCn1nc2cc(C(=O)NC3CCc4ccccc43)ccc2c1OCC` (stereo not shown), the “hERG current change (%, negative = inhibition) at 1uM” value is reported as 16.8%. In the case of `Fc1cccc(C2CC(c3cccc(Br)c3)Nc3nnnn32)c1` (stereo not shown), the “hERG current change (%, negative = inhibition) at 1uM” value is reported as 10.6%. With `O=C(Nc1nc2c(F)cc(F)cc2s1)C1CCN(C(=O)c2ccc(F)cc2)CC1` the “hERG current change (%, negative = inhibition) at 1uM” value was 11.4%. In the case of `O=c1cc(-c2ccc(Cl)cc2)oc(=O)[nH]1`, the “hERG current change (%, negative = inhibition) at 1uM” value is reported as 13.1%. With `O=C(NCCCn1ccnc1)Nc1cccc(Cl)c1` the “hERG current change (%, negative = inhibition) at 1uM” value was 13.1%. With `O=C1NC(c2ccc(-c3ccccc3[N+](=O)[O-])o2)C(C(=O)c2ccc(F)cc2)C(O)(C(F)(F)F)N1` (stereo not shown) the “hERG current change (%, negative = inhibition) at 1uM” value was 14.2%. In the case of `O=C(OCC(=O)N1CCCCC1)c1c[nH]c(=O)[nH]c1=O`, the “hERG current change (%, negative = inhibition) at 1uM” value is reported as 3.75%. For `COc1ccc(NC(=O)C(c2ccccc2)N2CCN(c3ccccn3)CC2)cc1Cl` (stereo not shown), the “hERG current change (%, negative = inhibition) at 1uM” value was -5.81%. For `COc1ccc(NC(=O)CN(C)C(=O)C2CC(=O)N(Cc3ccc(C)cc3)C2)cc1` (stereo not shown), the “hERG current change (%, negative = inhibition) at 1uM” value was 16.7%. In the case of `Cc1cc(NC(=O)c2cc(-c3cccc(OCC(C)C)c3)nc3ccccc23)no1`, the “hERG current change (%, negative = inhibition) at 1uM” value is reported as 13.3%. With `NC(=O)c1ccc(NC(=O)c2ccc(COc3ccc(F)cc3)o2)cc1` the “hERG current change (%, negative = inhibition) at 1uM” value was 6.99%. With `CC(=O)c1ccc(N2CCN(C(=O)Cc3cccs3)CC2)cc1` the “hERG current change (%, negative = inhibition) at 1uM” value was 2.08%. With `Cc1ccc(CNC(=O)c2coc(=O)c3ccccc23)o1` the “hERG current change (%, negative = inhibition) at 1uM” value was 17.5%. `COc1ccc(-n2cc([N+](=O)[O-])c(=O)c3ccc(Cl)cc32)cc1` was tested, and the “hERG current change (%, negative = inhibition) at 1uM” value was 3.6%. For `CC1(C)CC(=O)C(=CN2CCOCC2)C(=O)C1`, the “hERG current change (%, negative = inhibition) at 1uM” value was 9.47%. For `CC(C)(C)c1ccc(S(=O)(=O)N2CCN(Cc3cc4c(cc3O)OCO4)CC2)cc1`, the “hERG current change (%, negative = inhibition) at 1uM” value was 5.45%. With `O=C(c1ccc(CS(=O)(=O)c2ccc(Br)cc2)o1)N1CCOCC1` the “hERG current change (%, negative = inhibition) at 1uM” value was 7.27%. `COc1ccc(-c2noc(CN(C)S(=O)(=O)c3ccccc3)n2)cc1OC` was tested, and the “hERG current change (%, negative = inhibition) at 1uM” value was 8.37%. In the case of `COCCn1c(C)cc(C(=O)COC(=O)CCc2ccc(S(=O)(=O)N3CCOCC3)cc2)c1C`, the “hERG current change (%, negative = inhibition) at 1uM” value is reported as 7.56%. In the case of `CCOC(=O)c1c(C)c(-c2ccccc2)n(CC(=O)N2CCN(C)CC2)c1C`, the “hERG current change (%, negative = inhibition) at 1uM” value is reported as 6.27%. With `O=C(O)c1cc(S(=O)(=O)N2CCCCCC2)c(Cl)cc1Cl` the “hERG current change (%, negative = inhibition) at 1uM” value was 10.5%. For `Cn1cc([N+](=O)[O-])c(C(=O)Nc2ccn(Cc3c(F)c(F)cc(F)c3F)n2)n1`, the “hERG current change (%, negative = inhibition) at 1uM” value was -3.6%.
